# According to PubChem BioAssay AID1745853 (National Center for Advancing Translational Sciences (NCATS), 2022):
# Several values for one entry are separate records, joined by “and”; a condition that tells them apart may be missing. Equal values may be shown once. Some of the results follow. Shown are side measurements of this screen, not its main read-out; they come without a call.
# Tests used:
# Experiment in all cases: Primary Screen for Target Class Profiling of Small Molecule Inhibitors of Methyltransferases
# [1] = molecular target: Guanidinoacetate N-methyltransferase (Homo sapiens) (UniProt Q14353); settings: purified enzyme, MTase-Glo SAH luminescence; measured here: GAMT inhibition; at 40 µM; stronger effect = lower value
# Procedure, shortened: (§1)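 Each enzyme was reacted with SAM and its substrate, with compounds tested once at 40 uM; SAH formed was read by MTase-Glo luminescence.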
# [2] = molecular target: Nicotinamide N-methyltransferase (Homo sapiens) (UniProt P40261); settings: purified enzyme, MTase-Glo SAH luminescence; measured here: NNMT inhibition; at 40 µM; stronger effect = lower value
# Procedure, shortened: as §1
# [3] = molecular target: Phenylethanolamine N-methyltransferase (Homo sapiens) (UniProt P11086); settings: purified enzyme, MTase-Glo SAH luminescence; measured here: PNMT inhibition; at 40 µM; stronger effect = lower value
# Procedure, shortened: as §1
# [4] = molecular target: Glycine N-methyltransferase (Homo sapiens) (UniProt Q14749); settings: purified enzyme, MTase-Glo SAH luminescence; measured here: GNMT inhibition; at 40 µM; stronger effect = lower value
# Procedure, shortened: as §1
# [5] = molecular target: Histamine N-methyltransferase (Homo sapiens) (UniProt P50135); settings: purified enzyme, MTase-Glo SAH luminescence; measured here: HNMT inhibition; at 40 µM; stronger effect = lower value
# Procedure, shortened: as §1
# % is set by controls: 0 for no effect and ±100 for the full control effect.
Compound,"activity change, negative = inhibition [1]","activity change, negative = inhibition [2]","activity change, negative = inhibition [3]","activity change, negative = inhibition [4]","activity change, negative = inhibition [5]"
O=[N+]([O-])c1ccc(Nc2nc(N3CCOCC3)nc(N3CCOCC3)n2)cc1,-1.52%,-12.1%,3.83%,–,–
CC1(C)O[C@H]2CC(=O)OC[C@@]23C1=C(O)C(=O)[C@]1(C)C3CC[C@@]2(C)[C@H](c3ccoc3)OC(=O)[C@H]3O[C@]321 (stereo partly specified),-4.9%,-16%,0.298%,0%,0.588%
CS(=O)(=O)N(Cc1cccnc1)C1CN(C(=O)C2CCCCC2)C1,-10.5%,-8.78%,-1.63%,-5.59%,-3.26%
Cc1ccccc1CN1C(=O)c2cc3sccc3n2CC1(C)C(=O)NC1CCCCCC1 (stereo unspecified),6.22%,6.07%,-0.313%,0.497%,3.52%
O=C(c1nc2ncccn2n1)N1CCCn2cc(-c3ccccc3)nc21,-8.4%,-11.2%,-10.2%,-4.72%,-12.1%
CCCCOc1cc(C(=O)OCCN(CC)CC)ccc1N,5.71%,-8.37%,2.67%,6.19%,2.17%
Cc1cnc(C(=O)N2CCC3(CC2)C(=O)N(c2cccc(F)c2)C3c2ccccc2)cn1 (stereo unspecified),0.012%,-8.08%,-1.2%,-3.37%,-1.64%
Cc1nc2n(c(=O)c1CCN1CCC(c3noc4cc(F)ccc34)CC1)CCC[C@H]2O,2.54%,-13.9%,0.385%,6.8%,5.24%
COc1ccccc1CNC(=O)CCc1nnc2n(CCc3ccccc3)c(=O)c3ccccc3n12,0.917%,6.87%,-5.15%,-6.06%,3.98%
C/C=C/C1=CC2=CC(=O)C(C)(O)C(OC(=O)c3c(C)cc(O)cc3O)C2CO1 (stereo unspecified),1.38%,-7.97%,2.31%,0%,4.44%
COC(=O)c1cc2n(n1)CC(C)(C(=O)NC1CCCCCC1)N(c1cccc(F)c1)C2=O (stereo unspecified),0%,2.56%,0.408%,1.76%,3.66%
COC(=O)[C@H](NC(=O)[C@@H]1[C@@H](NC(=O)Nc2ccc(F)cc2F)CCN1C(=O)CSC)C(C)C,-7.41%,-12.8%,-7.61%,-5.85%,-5.4%
CC(C)Cn1c(=O)c2ccc(C(=O)NC3CCCCC3)cc2n2c(=O)n(C)nc12,0.265%,2.73%,2.46%,5.7%,2.73%
Cn1ccc(C(=O)NCc2nnc3n2C(C(=O)N2CCN(c4ncccn4)CC2)CC3)n1 (stereo unspecified),-5.08%,-6.71%,5.29%,-6.17%,-0.117%
COc1ccccc1CCNC(=O)CCCn1ccc2cc(S(=O)(=O)N3CCCC3)ccc21,7.18%,2.65%,1.54%,5.04%,0.482%
CCC(C)c1ccc(NC(=O)Cn2cnc3c2c(=O)n(C)c(=O)n3C)cc1 (stereo unspecified),-0.955%,-30.8%,0.507%,-3.35%,8.8%
O[C@@](Cc1ncc(CC2(C(F)(F)F)CC2)[nH]1)(c1ccc(-n2cccn2)cc1)C(F)(F)F,-14.4%,-28.3%,-4.35%,-12.1%,12.7%
CC1CCCC(NC(=O)C2(C)Cn3c(nc4ccccc43)C(=O)N2Cc2ccccc2F)C1C (stereo unspecified),0.875%,1.8%,1.34%,3.21%,2.24%
CC(C)[C@@H]1C(=O)N(S(C)(=O)=O)[C@@H]2CCN(C(=O)/C=C/CN3CCCCC3)[C@H]21,4.72%,-8.8%,3.04%,8.79%,2.67%
Cc1ccc(NC(=O)c2cc3n(n2)CC(C)(C(=O)NC2CCCCCC2)N(C)C3=O)cc1Cl (stereo unspecified),4.01%,3.47%,0.917%,-1.75%,-0.117%

Compound,"activity change, negative = inhibition [1]","activity change, negative = inhibition [2]","activity change, negative = inhibition [3]","activity change, negative = inhibition [4]","activity change, negative = inhibition [5]"
COC(=O)C1=CN(CC(=O)N2CCN(c3ccc(F)cc3)CC2)S(=O)(=O)N=C1C,-0.502%,-1.88%,10.9%,0.045%,2.55%
CC(=O)O[C@H]1[C@@]2(O)C[C@H](C)[C@H](OC(=O)c3ccccc3)[C@@H]2[C@@H](OC(=O)CO)[C@]2(OC(C)=O)C[C@H]3C(=O)C(C)(C)C[C@@H]3[C@@]1(C)[C@H]2OC(C)=O,-6.53%,-15%,-11.5%,4.54%,6.14%
O=C(Cn1c(=O)oc2cc(S(=O)(=O)N3CCCC3)ccc21)Nc1ccc(F)cc1F,0%,-0.186%,-9.49%,2.27%,3.56%
CCCn1c(=O)c2cc(Cl)ccc2n2c(SCC(=O)NC(C)CC)nnc12 (stereo unspecified),-13.9%,-8.4%,-7.64%,-7.95%,5.51%
Cc1cc2nc3n(c(=O)c2n1CC(=O)NC1CCc2ccccc21)CCCCC3 (stereo unspecified),-4.52%,-11.5%,-19%,-7.09%,-0.765%
CC(C)CN(Cc1cccnc1)C1CN(C(=O)CCc2nc3ccccc3s2)C1,-3.55%,-12.1%,9.2%,-7.26%,-3.03%
CC(C)NC(=O)Cn1nc2n(Cc3ccccc3)c(=O)c3ccc(C(=O)NC4CCCC4)cc3n2c1=O,0.118%,-0.914%,-3.27%,0.062%,1.24%
CC1(C)CCCC2(C)C1C(O)C=C(CO)C2(O)CO (stereo unspecified),7.66%,-5.94%,3.59%,0%,9.41%
C=Cc1ccc(Cn2nc3n(CCCOC(C)C)c(=O)c4ccccc4n3c2=O)cc1,0%,-2.69%,4.58%,2.23%,7.85%
CCC(C)NC(=O)c1ccc2c(=O)n(C)c3nnc(SCC(=O)Nc4cccc(Cl)c4)n3c2c1 (stereo unspecified),1.31%,-8.08%,-0.163%,-0.128%,-3.28%
O=C(NCCc1c[nH]c2ccc(O)cc12)c1ccc2ccccc2c1O,7.97%,-3.5%,-1.34%,–,–
CCOC(=O)C1=C(N)Oc2ccc(Br)cc2C1C(C#N)C(=O)OCC (stereo unspecified),-0.152% and 4.79%,-14% and -14.9%,0.122% and -3.15%,-2.11% and -0.551%,7.6% and 2.7%
CC1(C(=O)NC2CCCC2)Cn2c(ccc2-c2ccccc2)C(=O)N1CCC1=CCCCC1 (stereo unspecified),0%,0.849%,2.32%,3.81%,3.47%
CCCn1c(=O)c2ccc(C(=O)NC3CCCC3)cc2n2c(=O)n(CC(=O)NCc3ccc(C)cc3)nc12,3.44%,9.44%,8.33%,4.15%,5.29%
COc1ccc(CN2C(=O)c3cc4ccccc4n3CC2(C)C(=O)NC2CCCC2)cc1 (stereo unspecified),1.33%,-12.5%,1.12%,-4.84%,-1.89%
CCN1c2cc(C(=O)NCCc3ccccc3)ccc2C(=O)N2CCCCC21 (stereo unspecified),-0.323%,-9.43%,-5.29%,-17.9%,-16%
O=C(N[C@H]1CCN2C(=O)N(c3cccc(C(F)(F)F)c3)C(=O)[C@@H]2C1)c1ccncc1,-7.29%,-10.1%,-6.12%,-12.5%,-3.99%
CN(C)CCO[C@H]1C[C@@H](O)C12CCN(C(=O)Cc1ccc3ccccc3c1)CC2,-10.1%,-10.4%,-11.5%,-5.55%,-15.3%
CC(C)N(C(=O)Cn1c(=O)oc2cc(S(=O)(=O)N3CCCCC3)ccc21)C1CCCCC1,3.89%,-3.13%,-2.47%,2.51%,3.69%
NC1(Cc2ccc(Cl)cc2)CCN(c2ncnc3[nH]ccc23)CC1,6.41%,-31.2%,-23.3%,1.73%,-74.1%

Compound,"activity change, negative = inhibition [1]","activity change, negative = inhibition [2]","activity change, negative = inhibition [3]","activity change, negative = inhibition [4]","activity change, negative = inhibition [5]"
COC(=O)CNC(=O)c1nc(-c2ccc(Cl)cc2)c2ccccn12,-10.3%,-15.7%,-14.4%,-10.1%,-8.61%
CCn1nc(C(=O)N2C[C@@H](CN3CCN(C)CC3)[C@@H](CO)C2)cc1C,2.81%,-5.05%,15.1%,1.54%,1.49%
Cc1ccc(CCNC(=O)C2CCN(c3cc(C(F)(F)F)ncn3)CC2)cc1,-4.6%,-8.07%,-1.41%,-5.72%,-0.949%
COc1ccc2cc3c(NC(=O)c4ccco4)nn(C)c3nc2c1,14.9%,-16.1%,-8.18%,-17.9%,-11.1%
Cc1ccc(CCNC(=O)c2cc3n(n2)CC(C)(C(=O)NCc2ccc(C)cc2)N(C)C3=O)cc1 (stereo unspecified),2.77%,0.097%,-0.965%,0.668%,-2.72%
CCC(C)C(=O)OC12C(OC(C)=O)C(C)C3(O)C(C=C(CO)CC4(O)C(=O)C(C)=CC43)C1C2(C)C (stereo unspecified),-8.9%,-20.7%,-1.08%,-0.066%,-1.5%
CC(C)c1noc([C@@H]2Cc3nc[nH]c3CN2C(=O)CC(C)(C)CC(=O)O)n1,0.441%,-3.18%,-3.62%,-2.31%,0.501%
CCCn1c(=O)c2ccc(C(=O)NC(C)C)cc2n2c(=O)n(Cc3ccccc3Cl)nc12,0%,-5.71%,2.8%,2.04%,5.18%
CC(=O)N1CCc2sc(C(=O)NC3CCN(Cc4ccccc4)CC3)cc2C1,-5.15%,-11.2%,10.3%,-5.13%,-24.6%
CC(C)N1Cc2cc(C(=O)NC3CCN(Cc4ccccc4)CC3)sc2C1,-8.78%,-14.9%,-11.1%,-13.1%,-21.4%
CN(CCCNC(=O)Cn1ccc2cc(S(=O)(=O)N3CCCCC3)ccc21)C1CCCCC1,-1.65%,-7.92%,-4.37%,-3.27%,-33.7%
CC1(C(=O)NCc2ccccc2Cl)Cn2cnc(C(=O)NCCCc3ccccc3)c2C(=O)N1C1CC1 (stereo unspecified),0.265%,-3.66%,0.924%,-5.12%,1.39%
CCCn1c(=O)c2ccc(C(=O)NCC(C)C)cc2n2c(=O)n(CC(=O)Nc3ccc(F)cc3)nc12,0%,6.25%,5.37%,4.26%,4.98%
CC(C)(C)OC(=O)N1CC(NCc2cccc(F)c2F)C1,-4.54%,-13.3%,-11%,-4.46%,-0.612%
COc1ccc(-c2ccc3c(N4CCOCC4C)nc(N4CCOCC4C)nc3n2)cc1CO (stereo unspecified),4.29%,-35.2%,-25.1%,-5.66%,4.57%
CC(C)C(=O)OC[C@H]1O[C@H](O[C@H]2O[C@H](CO)[C@@H](O)[C@H](O)[C@H]2O)[C@H](O)[C@@H](O)[C@@H]1O,1.96%,-13.1%,-7.69%,1.27%,9.55%
COc1ccc(-c2nnc3n(CCc4ccccc4)c(=O)c4ccccc4n23)cc1OC,4.02%,-0.154%,-4.16%,-5.8%,-6.5%
CCOc1ccc(C2c3cccn3-c3sc4c(c3CN2C(=O)Nc2cc(F)ccc2F)CCCC4)cc1 (stereo unspecified),1.05%,2.89%,5.9%,-0.652%,4.21%
CCOCCCN1C(=O)c2cc3ccccc3n2CC1(C)C(=O)NC1CCCC1 (stereo unspecified),1.85%,11.7%,3.91%,8.79%,7.89%
